Data: the supplement of paper PMC8728848
The list shows a part of the results.

How the values were obtained:
Assay in all cases: glycan array binding signal (z-score within array); higher = stronger binding
Conditions in all cases: glycan notation: IUPAC condensed, linker removed
[1] = target: GlcNAc(b1-3)Gal(b1-4)GlcNAc(b1-3)Gal(b1-4)GlcNAc(b1-2)Man(a1-3)[GlcNAc(b1-3)Gal(b1-4)GlcNAc(b1-3)Gal(b1-4)GlcNAc(b1-2)Man(a1-6)]Man(b1-4)GlcNAc(b1-4)[Fuc(a1-6)]GlcNAc
Procedure, shortened: (§1)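 From the Consortium for Functional Glycomics database, 3228 arrays were curated, keeping only those whose protein sequence was available. Binding is given as a within-array Z-score averaged across arrays sharing a protein sequence and across linkers. Negative Z-scores can be read as non-binding.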

[2] = target: GlcNAc(b1-3)Gal(b1-4)GlcNAc(b1-3)Gal(b1-4)GlcNAc(b1-2)[GlcNAc(b1-3)Gal(b1-4)GlcNAc(b1-3)Gal(b1-4)GlcNAc(b1-6)]Man(a1-6)[GlcNAc(b1-3)Gal(b1-4)GlcNAc(b1-3)Gal(b1-4)GlcNAc(b1-2)Man(a1-3)]Man(b1-4)GlcNAc(b1-4)[Fuc(a1-6)]GlcNAc
Procedure, shortened: as §1

[3] = target: GlcNAc(b1-3)Gal(b1-4)GlcNAc(b1-3)Gal(b1-4)GlcNAc(b1-3)Gal(b1-4)GlcNAc(b1-2)Man(a1-3)[GlcNAc(b1-3)Gal(b1-4)GlcNAc(b1-3)Gal(b1-4)GlcNAc(b1-3)Gal(b1-4)GlcNAc(b1-2)Man(a1-6)]Man(b1-4)GlcNAc(b1-4)GlcNAc
Procedure, shortened: as §1

[4] = target: GlcNAc(b1-3)Gal(b1-4)GlcNAc(b1-3)Gal(b1-4)GlcNAc(b1-3)Gal(b1-4)GlcNAc(b1-2)Man(a1-3)[GlcNAc(b1-3)Gal(b1-4)GlcNAc(b1-3)Gal(b1-4)GlcNAc(b1-3)Gal(b1-4)GlcNAc(b1-2)Man(a1-6)]Man(b1-4)GlcNAc(b1-4)[Fuc(a1-6)]GlcNAc
Procedure, shortened: as §1

[5] = target: GlcNAc(b1-3)Gal(b1-4)GlcNAc(b1-3)Gal(b1-4)GlcNAc(b1-3)Gal(b1-4)GlcNAc(b1-2)[GlcNAc(b1-3)Gal(b1-4)GlcNAc(b1-3)Gal(b1-4)GlcNAc(b1-3)Gal(b1-4)GlcNAc(b1-6)]Man(a1-6)[GlcNAc(b1-3)Gal(b1-4)GlcNAc(b1-3)Gal(b1-4)GlcNAc(b1-3)Gal(b1-4)GlcNAc(b1-2)Man(a1-3)]Man(b1-4)GlcNAc(b1-4)[Fuc(a1-6)]GlcNAc
Procedure, shortened: as §1

[6] = target: GlcNAc(b1-3)Gal(b1-4)GlcNAc(b1-3)Gal(b1-4)GlcNAc(b1-3)Gal(b1-4)GlcNAc(b1-3)Gal(b1-4)GlcNAc(b1-2)Man(a1-3)[GlcNAc(b1-3)Gal(b1-4)GlcNAc(b1-3)Gal(b1-4)GlcNAc(b1-3)Gal(b1-4)GlcNAc(b1-3)Gal(b1-4)GlcNAc(b1-2)Man(a1-6)]Man(b1-4)GlcNAc(b1-4)GlcNAc
Procedure, shortened: as §1

[7] = target: GlcNAc(b1-3)Gal(b1-4)GlcNAc(b1-3)Gal(b1-4)GlcNAc(b1-3)Gal(b1-4)GlcNAc(b1-3)Gal(b1-4)GlcNAc(b1-2)Man(a1-3)[GlcNAc(b1-3)Gal(b1-4)GlcNAc(b1-3)Gal(b1-4)GlcNAc(b1-3)Gal(b1-4)GlcNAc(b1-3)Gal(b1-4)GlcNAc(b1-2)Man(a1-6)]Man(b1-4)GlcNAc(b1-4)[Fuc(a1-6)]GlcNAc
Procedure, shortened: as §1

[8] = target: GlcNAc(b1-3)Gal(b1-4)GlcNAc(b1-3)Gal(b1-4)GlcNAc(b1-3)Gal(b1-4)GlcNAc(b1-3)Gal(b1-4)GlcNAc(b1-2)[GlcNAc(b1-3)Gal(b1-4)GlcNAc(b1-3)Gal(b1-4)GlcNAc(b1-3)Gal(b1-4)GlcNAc(b1-3)Gal(b1-4)GlcNAc(b1-6)]Man(a1-6)[GlcNAc(b1-3)Gal(b1-4)GlcNAc(b1-3)Gal(b1-4)GlcNAc(b1-3)Gal(b1-4)GlcNAc(b1-3)Gal(b1-4)GlcNAc(b1-2)Man(a1-3)]Man(b1-4)GlcNAc(b1-4)[Fuc(a1-6)]GlcNAc
Procedure, shortened: as §1

[9] = target: GlcNAc(b1-3)Gal(b1-4)GlcNAc(b1-3)Gal(b1-4)GlcNAc(b1-3)GalNAc
Procedure, shortened: as §1

[10] = target: GlcNAc(b1-3)Gal(b1-4)GlcNAc(b1-3)GalNAc
Procedure, shortened: as §1

[11] = target: GlcNAc(b1-3)Gal(b1-4)GlcNAc(b1-3)[GlcNAc(b1-3)Gal(b1-4)GlcNAc(b1-3)]GalNAc
Procedure, shortened: as §1

[12] = target: GlcNAc(b1-3)Gal(b1-4)GlcNAc(b1-6)[Gal(b1-3)]GalNAc
Procedure, shortened: as §1

[13] = target: GlcNAc(b1-3)Gal(b1-4)GlcNAc(b1-6)[GlcNAc(b1-3)Gal(b1-3)]GalNAc
Procedure, shortened: as §1

[14] = target: GlcNAc(b1-3)Gal(b1-4)GlcNAc(b1-6)[GlcNAc(b1-3)]Gal(b1-4)GlcNAc
Procedure, shortened: as §1

GlcNAc(b1-3)GalNAc = target: GlcNAc(b1-3)GalNAc
Procedure, shortened: as §1

GlcNAc(b1-3)Man = target: GlcNAc(b1-3)Man
Procedure, shortened: as §1

[15] = target: GlcNAc(b1-3)[GlcNAc(b1-4)][GlcNAc(b1-6)]GlcNAc
Procedure, shortened: as §1

[16] = target: GlcNAc(b1-3)[GlcNAc(b1-6)]Gal(b1-4)GlcNAc
Procedure, shortened: as §1

[17] = target: GlcNAc(b1-3)[GlcNAc(b1-6)]GalNAc
Procedure, shortened: as §1

[18] = target: GlcNAc(b1-3)[GlcNAc(b1-6)]GlcNAc(b1-4)GlcNAc
Procedure, shortened: as §1

[19] = target: GlcNAc(b1-4)Gal(b1-4)GlcNAc
Procedure, shortened: as §1

GlcNAc(b1-4)GlcNAc = target: GlcNAc(b1-4)GlcNAc
Procedure, shortened: as §1

[20] = target: GlcNAc(b1-4)GlcNAc(b1-4)GlcNAc
Procedure, shortened: as §1

[21] = target: GlcNAc(b1-4)GlcNAc(b1-4)GlcNAc(b1-4)GlcNAc(b1-4)GlcNAc
Procedure, shortened: as §1

[22] = target: GlcNAc(b1-4)GlcNAc(b1-4)GlcNAc(b1-4)GlcNAc(b1-4)GlcNAc(b1-4)GlcNAc
Procedure, shortened: as §1

[23] = target: GlcNAc(b1-4)[GlcNAc(b1-6)]GalNAc
Procedure, shortened: as §1

[24] = target: GlcNAc(b1-6)Gal(b1-4)GlcNAc
Procedure, shortened: as §1

GlcNAc(b1-6)GalNAc = target: GlcNAc(b1-6)GalNAc
Procedure, shortened: as §1

[25] = target: GlcNAc6S(b1-3)Gal(b1-4)GlcNAc
Procedure, shortened: as §1

Kdn(a2-3)Gal(b1-3)GalNAc = target: Kdn(a2-3)Gal(b1-3)GalNAc
Procedure, shortened: as §1

Kdn(a2-3)Gal(b1-3)GlcNAc = target: Kdn(a2-3)Gal(b1-3)GlcNAc
Procedure, shortened: as §1

Kdn(a2-3)Gal(b1-4)Glc = target: Kdn(a2-3)Gal(b1-4)Glc
Procedure, shortened: as §1

Kdn(a2-3)Gal(b1-4)GlcNAc = target: Kdn(a2-3)Gal(b1-4)GlcNAc
Procedure, shortened: as §1

[26] = target: Kdn(a2-3)Gal(b1-4)[Fuc(a1-3)]GlcNAc
Procedure, shortened: as §1

Kdn(a2-6)Gal(b1-4)GlcNAc = target: Kdn(a2-6)Gal(b1-4)GlcNAc
Procedure, shortened: as §1

[27] = target: Man(a1-2)Man(a1-2)Man(a1-3)Man
Procedure, shortened: as §1

[28] = target: Man(a1-2)Man(a1-2)Man(a1-6)[Man(a1-3)]Man
Procedure, shortened: as §1

B1: DBA (Dolichos biflorus) (protein)
chain: ANIQSFSFKNFNSPSFILQGDATVSSGKLQLTKVKENGFPLRFPSGRAFYSSPIQIYDKFTGAVASWATSFTVKISAPSKASFADGIAFALVPVGSEPRRNGGYLGVFDSDVYNNSAQTVAVEFDTLSNSGWDPSMKHIGIDVNSIKSIATVSWDLANGENAEILITYNAATSLLVVSLVHPSRRTSYILSERVDITNELPEYVGVGFSATTGLSEGYIETHDVLSWSFASRLPDDSTAEPLDLARYLVRNVL
glycan array binding signal (z-score) [1]: 0.043 | glycan array binding signal (z-score) [2]: -0.147 | glycan array binding signal (z-score) [3]: -0.069 | glycan array binding signal (z-score) [4]: 0.011 | glycan array binding signal (z-score) [5]: -0.094 | glycan array binding signal (z-score) [6]: 0.01 | glycan array binding signal (z-score) [7]: 0.003 | glycan array binding signal (z-score) [8]: -0.1 | glycan array binding signal (z-score) [9]: -0.074 | glycan array binding signal (z-score) [10]: -0.139 | glycan array binding signal (z-score) [11]: -0.114 | glycan array binding signal (z-score) [12]: -0.126 | glycan array binding signal (z-score) [13]: -0.106 | glycan array binding signal (z-score) [14]: -0.147 | glycan array binding signal (z-score) (GlcNAc(b1-3)GalNAc): -0.101 | glycan array binding signal (z-score) (GlcNAc(b1-3)Man): -0.13 | glycan array binding signal (z-score) [15]: -0.099 | glycan array binding signal (z-score) [16]: -0.174 | glycan array binding signal (z-score) [17]: -0.113 | glycan array binding signal (z-score) [18]: -0.184 | glycan array binding signal (z-score) [19]: -0.16 | glycan array binding signal (z-score) (GlcNAc(b1-4)GlcNAc): -0.116 | glycan array binding signal (z-score) [20]: -0.118 | glycan array binding signal (z-score) [21]: -0.14 | glycan array binding signal (z-score) [22]: -0.099 | glycan array binding signal (z-score) [23]: -0.174 | glycan array binding signal (z-score) [24]: -0.13 | glycan array binding signal (z-score) (GlcNAc(b1-6)GalNAc): -0.128 | glycan array binding signal (z-score) [25]: -0.123 | glycan array binding signal (z-score) (Kdn(a2-3)Gal(b1-3)GalNAc): -0.073 | glycan array binding signal (z-score) (Kdn(a2-3)Gal(b1-3)GlcNAc): -0.169 | glycan array binding signal (z-score) (Kdn(a2-3)Gal(b1-4)Glc): -0.079 | glycan array binding signal (z-score) (Kdn(a2-3)Gal(b1-4)GlcNAc): -0.095 | glycan array binding signal (z-score) [26]: -0.004 | glycan array binding signal (z-score) (Kdn(a2-6)Gal(b1-4)GlcNAc): -0.088 | glycan array binding signal (z-score) [27]: -0.13 | glycan array binding signal (z-score) [28]: -0.081
